# PubChem BioAssay (Tox21)
# Inconclusive results, whose numbers are uncertain, are shown with a selection of clear calls. For some of these results: Potencies beside an inconclusive call are fits to weak or partial responses and may not hold up. Activity calls are given as the source filed them. Unless noted, the call rests on the fitted dose curve.
# Tests used:
# [1] = molecular target: Peroxisome proliferator-activated receptor gamma (Homo sapiens) (UniProt P37231); assay: qHTS assay to identify small molecule agonists of the peroxisome proliferator-activated receptor gamma (PPARg) signaling pathway (AID 743094; active means well fitted activation curve with a large enough effect in the signal ratio in the repeat runs, not every such curve was filed as active; inconclusive means weak or mixed curves, or effect the other way; inactive means no such curve, though single readings can be large or run the other way; the % refers to the signal ratio; further: potency means the concentration at half of the fitted maximal effect; on activation: on the % scale 0 is the no-effect control and ±100 the full control effect); settings: HEK293H PPARg-UAS-bla, beta-lactamase FRET ratio, 17 h; activation: at 57 µM (top of the series) unless noted
# Chain of UniProt P37231 (P37231 whole entry, looked up): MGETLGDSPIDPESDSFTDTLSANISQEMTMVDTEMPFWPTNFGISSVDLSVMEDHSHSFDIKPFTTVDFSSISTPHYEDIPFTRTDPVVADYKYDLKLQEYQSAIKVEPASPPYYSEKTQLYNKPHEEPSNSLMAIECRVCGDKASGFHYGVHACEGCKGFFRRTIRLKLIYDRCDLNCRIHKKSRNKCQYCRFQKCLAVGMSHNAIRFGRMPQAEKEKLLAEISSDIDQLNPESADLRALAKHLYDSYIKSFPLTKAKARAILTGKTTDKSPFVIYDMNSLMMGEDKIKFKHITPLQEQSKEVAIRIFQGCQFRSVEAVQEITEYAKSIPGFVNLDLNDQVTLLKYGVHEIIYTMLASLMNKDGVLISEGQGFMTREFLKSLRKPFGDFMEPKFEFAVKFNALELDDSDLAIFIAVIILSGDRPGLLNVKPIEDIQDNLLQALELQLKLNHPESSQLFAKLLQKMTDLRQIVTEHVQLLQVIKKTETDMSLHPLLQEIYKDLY
# Outline: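 Following 5 h plating at 37C, PPARg-bla HEK293H cells receive compound or DMSO for 17 h; fluorescence intensity is recorded after LiveBLAzer B/G loading for 1 h at room temperature.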
# [2] = molecular target: Peroxisome proliferator-activated receptor gamma (Homo sapiens) (UniProt P37231); assay: qHTS assay to identify small molecule antagonists of the peroxisome proliferator-activated receptor gamma (PPARg) signaling pathway (AID 743191); settings: HEK293H PPARg-UAS-bla, beta-lactamase ratio, antagonist, 17 h; ratio activity, negative = inhibition: at 62.6 µM (top of the series) unless noted; further: nearly all actives have a fitted effect of over 30% in size; further: potency means the concentration at half of the fitted maximal effect; on ratio activity, negative = inhibition: on the % scale 0 is the no-effect control and ±100 the full control effect
# Outline: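 GeneBLAzer PPARg UAS-bla HEK293H cells carrying a UAS-driven beta-lactamase reporter were plated at 3000 cells/well, preincubated 5 h at 37C, then given compound for 17 h at 37C; LiveBLAzer B/G FRET substrate was read after 1 h at room temperature.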
# [3] = qHTS assay for small molecule agonists of the antioxidant response element (ARE) signaling pathway (AID 743202; active means well fitted activation curve with a large enough effect in the signal ratio in the repeat runs, not every such curve was filed as active; inconclusive means weak or mixed curves, or effect the other way; inactive means no such curve, though single readings can be large or run the other way; the % refers to the signal ratio; further: potency means the concentration at half of the fitted maximal effect); settings: HepG2 ARE-bla reporter, beta-lactamase FRET, 16 h; activation: at 73.3 µM (top of the series) unless noted
# Outline: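 Compounds delivered in DMSO to ARE-bla HepG2 cells (2,000 cells/well, pre-incubated 5 h) and left 16 h at 37 C. LiveBLAzer B/G FRET substrate then added for 2 h at RT before fluorescence reading.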
# [4] = molecular target: Peroxisome proliferator-activated receptor delta (Homo sapiens) (UniProt Q03181); assay: qHTS assay to identify small molecule antagonists of the peroxisome proliferator-activated receptor delta (PPARd) signaling pathway (AID 743215; active means well fitted inhibition curve with a large enough effect in the signal ratio in the repeat runs, not every such curve was filed as active; inconclusive means weak or mixed curves, or effect the other way; inactive means no such curve, though single readings can be large or run the other way; the % refers to the signal ratio;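 further: cells stimulated with agonist L165041 at 300 nM final during compound exposure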; further: potency means the concentration at half of the fitted maximal effect); settings: HEK293H PPARd-UAS-bla, beta-lactamase FRET ratio, antagonist, 17 h; ratio activity, negative = inhibition: at 62 µM (top of the series) unless noted
# Chain of UniProt Q03181 (Q03181 whole entry, looked up): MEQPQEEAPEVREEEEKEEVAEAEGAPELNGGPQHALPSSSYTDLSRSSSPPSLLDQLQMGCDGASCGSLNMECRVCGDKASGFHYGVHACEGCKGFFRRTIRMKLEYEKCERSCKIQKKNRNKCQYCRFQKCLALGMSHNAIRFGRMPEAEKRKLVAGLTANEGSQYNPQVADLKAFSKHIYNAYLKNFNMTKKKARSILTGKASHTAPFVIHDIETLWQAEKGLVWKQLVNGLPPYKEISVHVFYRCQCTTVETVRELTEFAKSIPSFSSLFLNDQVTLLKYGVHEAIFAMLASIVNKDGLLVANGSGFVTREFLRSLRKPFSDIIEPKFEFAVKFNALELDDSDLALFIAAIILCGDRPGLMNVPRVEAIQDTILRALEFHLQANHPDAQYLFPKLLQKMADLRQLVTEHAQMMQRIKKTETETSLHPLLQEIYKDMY
# Outline: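 With L165041 present at 300 nM final, compounds were incubated 17 h at 37 C on PPARd UAS-bla HEK293H cells. A FRET-based beta-lactamase substrate was then applied for 2 h at room temperature and fluorescence intensity recorded.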
# [5] = qHTS assay for small molecule activators of the heat shock response signaling pathway - cell viability counter screen (AID 743209; active means well fitted curve in the direction sought with a large enough effect in the repeat runs; inconclusive means weak or mixed curves; inactive means no such curve, though single readings can be large; an effect the other way counts as inactive or inconclusive; further: nearly all actives have a fitted effect of over 50% in size; further: potency means the concentration at half of the fitted maximal effect); settings: HSE-bla HeLa viability, CellTiter-Glo luminescence, 5 h; activity change, negative = cytotoxicity: at 62.6 µM (top of the series) unless noted
# Outline: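 Counter screen for cytotoxicity in HeLa HSE-bla reporter cells. Treatment was 5 h at 37 C; viability was detected by luminescent ATP assay (CellTiter-Glo) in the same wells as the beta-lactamase read.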
# [6] = molecular target: Bile acid receptor (Homo sapiens) (UniProt Q96RI1); assay: qHTS assay to identify small molecule antagonists of the farnesoid-X-receptor (FXR) signaling pathway (AID 743217; active means well fitted inhibition curve with a large enough effect in the signal ratio in the repeat runs, not every such curve was filed as active; inconclusive means weak or mixed curves, or effect the other way; inactive means no such curve, though single readings can be large or run the other way; the % refers to the signal ratio; further: on the % scale 0 is the no-effect control and ±100 the full control effect); settings: HEK293T FXR-UAS-bla, beta-lactamase ratio, CDCA-stimulated, 16 h; activity change, negative = inhibition: at 62.6 µM (top of the series) unless noted
# Chain of UniProt Q96RI1 (Q96RI1 whole entry, looked up): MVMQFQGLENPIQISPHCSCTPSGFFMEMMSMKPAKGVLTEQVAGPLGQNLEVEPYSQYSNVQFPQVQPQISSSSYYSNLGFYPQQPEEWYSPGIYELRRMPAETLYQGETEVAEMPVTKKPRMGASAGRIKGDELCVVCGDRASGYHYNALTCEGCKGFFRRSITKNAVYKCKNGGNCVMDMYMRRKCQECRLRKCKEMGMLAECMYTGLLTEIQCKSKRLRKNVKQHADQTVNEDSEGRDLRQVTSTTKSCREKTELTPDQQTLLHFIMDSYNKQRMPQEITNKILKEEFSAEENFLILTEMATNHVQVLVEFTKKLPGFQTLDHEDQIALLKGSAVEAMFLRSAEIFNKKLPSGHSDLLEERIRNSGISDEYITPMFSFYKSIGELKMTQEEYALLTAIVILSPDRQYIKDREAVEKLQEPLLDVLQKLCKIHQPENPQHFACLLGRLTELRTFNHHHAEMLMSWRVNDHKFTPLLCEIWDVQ
# Outline: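 In this cell-based antagonist screen, inhibition of CDCA-driven (50 uM final) UAS-beta-lactamase expression in HEK 293T cells was measured by FRET fluorescence following 16 h compound exposure at 37 °C.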
# [7] = molecular target: Vitamin D3 receptor (Homo sapiens) (UniProt P11473); assay: qHTS assay to identify small molecule antagonists of the vitamin D receptor (VDR) signaling pathway (AID 743223; active means well fitted inhibition curve with a large enough effect in the signal ratio in the repeat runs, not every such curve was filed as active; inconclusive means weak or mixed curves, or effect the other way; inactive means no such curve, though single readings can be large or run the other way; the % refers to the signal ratio; further: potency means the concentration at half of the fitted maximal effect); settings: VDR-UAS-bla HEK293T, beta-lactamase FRET ratio, 16 h; activity change, negative = inhibition: at 61 µM (top of the series) unless noted
# Chain of UniProt P11473 (P11473 whole entry, looked up): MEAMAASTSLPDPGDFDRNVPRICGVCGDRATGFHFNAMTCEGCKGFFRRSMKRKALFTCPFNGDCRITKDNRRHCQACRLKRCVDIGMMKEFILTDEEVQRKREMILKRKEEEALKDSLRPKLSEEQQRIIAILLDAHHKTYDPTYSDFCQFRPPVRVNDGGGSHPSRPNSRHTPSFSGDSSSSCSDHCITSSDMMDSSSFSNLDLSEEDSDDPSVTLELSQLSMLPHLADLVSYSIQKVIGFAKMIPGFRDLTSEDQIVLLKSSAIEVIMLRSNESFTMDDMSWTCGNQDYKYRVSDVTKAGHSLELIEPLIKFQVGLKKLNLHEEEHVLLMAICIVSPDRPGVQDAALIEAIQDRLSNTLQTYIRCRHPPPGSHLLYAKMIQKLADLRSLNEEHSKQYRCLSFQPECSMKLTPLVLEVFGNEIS
# Outline: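 After VDR-bla cells are plated and left 4 h at 37C, DMSO-dissolved compounds and 3 nM (final) calcitriol agonist are added. Incubation continues 16 h at 37C; FRET beta-lactamase substrate then develops 2 h at room temperature.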
# [8] = molecular target: Vitamin D3 receptor (Homo sapiens) (UniProt P11473); assay: qHTS assay to identify small molecule agonists of the vitamin D receptor (VDR) signaling pathway (AID 743222); settings: HEK293T VDR-UAS-bla, beta-lactamase FRET ratio, 16 h; activation: at 63.5 µM (top of the series) unless noted; further: potency means the concentration at half of the fitted maximal effect
# Outline: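 VDR-bla cells were seeded, left 4 h, treated with compounds in DMSO for 16 h, incubated 2 h at RT with B/G FRET substrate, and read for fluorescence.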
# [9] = qHTS assay to identify small molecule antagonists of the peroxisome proliferator-activated receptor delta (PPARd) signaling pathway - cell viability counter screen (AID 743213; active means well fitted curve in the direction sought with a large enough effect in the repeat runs; inconclusive means weak or mixed curves; inactive means no such curve, though single readings can be large; an effect the other way counts as inactive or inconclusive; further: nearly all actives have a fitted effect of over 50% in size; further: potency means the concentration at half of the fitted maximal effect); settings: PPARd-bla HEK293H viability, CellTiter-Glo luminescence, 17 h; viability change, negative = cytotoxic: at 62 µM (top of the series) unless noted
# Outline: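 HEK293H cells with the PPARd UAS-bla reporter, co-treated 17 h at 37 C with compounds and L165041 (300 nM final), were lysed with CellTiter-Glo. Luminescence indicated viable cell content.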
# [10] = qHTS assay to identify small molecule agonists of the farnesoid-X-receptor (FXR) signaling pathway - cell viability counter screen (AID 743218; active means well fitted curve in the direction sought with a large enough effect in the repeat runs; inconclusive means weak or mixed curves; inactive means no such curve, though single readings can be large; an effect the other way counts as inactive or inconclusive; further: nearly all actives have a fitted effect of over 45% in size; further: potency means the concentration at half of the fitted maximal effect); settings: FXR-bla HEK293T viability, CellTiter-Glo luminescence, 16 h; viability change, negative = cytotoxic: at 62.6 µM (top of the series) unless noted
# Outline: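 After 16 h at 37 C with test compounds, FXR-bla HEK 293T cells were given LiveBLAzer B/G substrate for 2 h at RT and then CellTiter-Glo; luminescence was taken after 30 min.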
# [11] = qHTS assay to identify small molecule antagonists of the peroxisome proliferator-activated receptor gamma (PPARg) signaling pathway - cell viability counter screen (AID 743194; active means well fitted curve in the direction sought with a large enough effect in the repeat runs; inconclusive means weak or mixed curves; inactive means no such curve, though single readings can be large; an effect the other way counts as inactive or inconclusive; further: nearly all actives have a fitted effect of over 55% in size; further: potency means the concentration at half of the fitted maximal effect); settings: PPARg-bla HEK293H viability, CellTiter-Glo luminescence, 17 h, co-treated with 50 nM rosiglitazone; activity change, negative = cytotoxicity: at 62.6 µM (top of the series) unless noted
# Outline: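 PPARg-UAS-bla HEK293H cells were plated, rested 5 h at 37 C, then treated with compounds plus rosiglitazone (50 nM final) for 17 h at 37 C; viability was then read by CellTiter-Glo luminescence after 30 min at room temperature.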
# [12] = molecular target: Peroxisome proliferator-activated receptor delta (Homo sapiens) (UniProt Q03181); assay: qHTS assay to identify small molecule agonists of the peroxisome proliferator-activated receptor delta (PPARd) signaling pathway (AID 743212); settings: HEK293H PPARd-UAS-bla, beta-lactamase FRET ratio, 17 h; activation: at 62.6 µM (top of the series) unless noted; further: potency means the concentration at half of the fitted maximal effect
# Outline: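 A PPARd-bla HEK293H line with beta-lactamase under an Upstream Activator Sequence is treated with compounds at 37 C. Substrate loading for 2 h at room temperature precedes the fluorescence measurement.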
# [13] = qHTS assay for small molecule agonists of the antioxidant response element (ARE) signaling pathway - cell viability counter screen (AID 743203); settings: ARE-bla HepG2 viability, CellTiter-Glo luminescence, 16 h; viability change, negative = cytotoxic: at 73.3 µM (top of the series); further: potency means the concentration at half of the fitted maximal effect; nearly all actives have a fitted effect of over 55% in size
# Outline: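 Compounds in DMSO were pinned onto ARE-bla HepG2 cells plated 5 hrs earlier at 2,000 cells/well. Sixteen hours later at 37C/5% CO2, CellTiter-Glo was added and luminescence measured after 30 min at room temperature.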
# [14] = qHTS assay for small molecule activators of the heat shock response signaling pathway (AID 743210; active means well fitted activation curve with a large enough effect in the signal ratio in the repeat runs, with a control signal flat, not every such curve was filed as active; inconclusive means weak or mixed curves; the % refers to the signal ratio; further: potency means the concentration at half of the fitted maximal effect); settings: HeLa HSE-bla reporter, beta-lactamase ratio, 5 h; activation: at 62.6 µM (top of the series) unless noted
# Outline: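 Reporter gene assay: HeLa cells stably bearing an HSE-bla construct, compound treatment 5 h at 37 C, LiveBLAzer substrate 2.5 h at RT, fluorescence intensity.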
# [15] = qHTS assay to identify small molecule agonists of the vitamin D receptor (VDR) signaling pathway - cell viability counter screen (AID 743224; active means well fitted curve in the direction sought with a large enough effect in the repeat runs; inconclusive means weak or mixed curves; inactive means no such curve, though single readings can be large; an effect the other way counts as inactive or inconclusive; further: potency means the concentration at half of the fitted maximal effect; nearly all actives have a fitted effect of over 50% in size); settings: VDR-bla HEK293T viability, CellTiter-Glo luminescence, 16 h; activity change, negative = cytotoxicity: at 62.6 µM (top of the series)
# Outline: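 Here cell health was gauged by luminescent ATP detection (CellTiter-Glo, 30 min RT) in VDR-bla cells that had been incubated with test compounds for 16 h at 37C and 5% CO2.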
# [16] = qHTS assay to identify small molecule agonists of the peroxisome proliferator-activated receptor delta (PPARd) signaling pathway - cell viability counter screen (AID 743211; active means well fitted curve in the direction sought with a large enough effect in the repeat runs; inconclusive means weak or mixed curves; inactive means no such curve, though single readings can be large; an effect the other way counts as inactive or inconclusive; further: potency means the concentration at half of the fitted maximal effect; nearly all actives have a fitted effect of over 55% in size); settings: PPARd-bla HEK293H viability, CellTiter-Glo luminescence, 17 h; activity change, negative = cytotoxicity: at 62.6 µM (top of the series) unless noted
# Outline: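 Multiplexed format: after the 2 h room-temperature LiveBLAzer B/G FRET step, CellTiter-Glo was added to the same wells. Luminescence after 30 min gave cell viability; compound exposure was 17 h at 37C.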
# [17] = molecular target: Bile acid receptor (Homo sapiens) (UniProt Q96RI1); assay: qHTS assay to identify small molecule agonists of the farnesoid-X-receptor (FXR) signaling pathway (AID 743220; active means well fitted activation curve with a large enough effect in the signal ratio in the repeat runs, not every such curve was filed as active; inconclusive means weak or mixed curves, or effect the other way; the % refers to the signal ratio; further: on the % scale 0 is the no-effect control and ±100 the full control effect); settings: HEK293T FXR-UAS-bla, beta-lactamase FRET ratio, 16 h; activation: at 62.6 µM (top of the series) unless noted
# Outline: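 Beta-lactamase reporter under UAS control in GeneBLAzer FXR HEK 293T cells (5000/well) measured with LiveBLAzer FRET substrate after 2 h at room temperature. Compound exposure lasted 16 h at 37C.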
# Tags describe the fitted curve by direction and shape or compound fluorescence and quenching.
smiles,measurement,setting,value
O=C(NS(=O)(=O)/C=C/c1ccccc1)c1ccc(F)cc1Cl,activation,[1],inconclusive: 7.07%
same,"ratio activity, negative = inhibition",[2],inconclusive: -48.9%
same,activation,[3],inconclusive: 21.2%
same,Potency,[4],inactive
CCc1cccc(O)c1,Potency,[1],inactive
same,Potency,[2],inactive
same,Potency,[3],inconclusive: 70 µM
same,Potency,[5],inactive
same,Potency,[6],inactive
same,Potency,[7],inactive
Cc1cccc(O)c1N,activation,[1],inconclusive: -15.4% [at 78.9 µM]
same,Potency,[2],inconclusive: 49.5 µM [inhibitor]
same,Potency,[3],"inconclusive: 4.37 µM [falling, partial curve, poor fit]"
same,activation,[8],inconclusive: -22.4% [at 81.1 µM]
same,"activity change, negative = inhibition",[7],inconclusive: 1.3% [at 78.8 µM]
COC(=O)CCS,activation,[1],inconclusive: 3.99%
same,Potency,[2],inactive
same,Potency,[9],inactive
same,Potency,[10],inactive
NCCNCCO,Potency,[1],inactive
same,Potency,[2],inactive
same,Potency,[9],inactive
same,Potency,[4],inactive
same,Potency,[8],inactive
O=C(O)CCc1nc(-c2ccccc2)c(-c2ccccc2)o1,Potency,[1],active: 15.1 µM
same,Potency,[11],"inconclusive: 13.3 µM [cytotoxic, partial curve, poor fit]"
same,activation,[3],inconclusive: 19.4%
same,Potency,[4],inactive
same,Potency,[8],inactive
same,"activity change, negative = inhibition",[7],inconclusive: 30.1%
Cc1ccc(Cl)c(Nc2ccccc2C(=O)O)c1Cl,activation,[1],inconclusive: -12.5%
same,Potency,[2],inconclusive: 10.6 µM [partial curve]
same,Potency,[5],"inconclusive: 0.266 µM [cytotoxic, single point]"
same,Potency,[12],"inconclusive: 23.7 µM [rising, partial curve]"
same,Potency,[4],inconclusive: 26.6 µM [fluorescent]
same,Potency,[8],"inconclusive: 9.44 µM [rising, full curve]"
same,Potency,[7],inconclusive: 21.3 µM [fluorescent]
CCCCCCC(CCCCCCCCCCC(=O)OCC(COC(C)=O)OC(C)=O)OC(C)=O (configuration not stated),activation,[1],inconclusive: 5.08%
same,"ratio activity, negative = inhibition",[2],inconclusive: 7.09%
same,activation,[3],inconclusive: 0.0917%
same,"activity change, negative = inhibition",[6],inconclusive: 10.8%
same,Potency,[10],"inconclusive: 33.8 µM [rising, single point]"
Cc1cc(C)c(N)cc1C,Potency,[1],inactive
same,"ratio activity, negative = inhibition",[2],inconclusive: -10.4%
same,Potency,[4],inactive
same,Potency,[6],inactive
O=c1cc(-c2ccccc2)oc2ccc3ccccc3c12,activation,[1],inconclusive: 2.91%
same,Potency,[11],active: 19.5 µM
same,Potency,[3],inconclusive: 0.486 µM
same,Potency,[13],"inconclusive: 68.6 µM [cytotoxic, single point]"
same,Potency,[14],inconclusive: 51.9 µM
same,activation,[12],inconclusive: 15.3%
same,Potency,[9],active: 13.8 µM
same,Potency,[4],inactive
same,Potency,[10],active: 8.71 µM
same,"activity change, negative = inhibition",[7],inconclusive: 19.4%
same,Potency,[15],active: 19.5 µM
COc1cc(C(=O)NCCCCCC(=O)O)cc(OC)c1OC,Potency,[1],inactive
same,Potency,[2],inactive
same,Potency,[12],inactive
same,"ratio activity, negative = inhibition",[4],inconclusive: 11.8%
same,activation,[8],inconclusive: 8.37%
same,Potency,[7],inactive
CCOC(=O)[C@@](C)(N)Cc1ccc(O)c(O)c1,Potency,[1],inactive
same,Potency,[11],inactive
same,activation,[3],inconclusive: 16.5%
same,Potency,[9],inactive
same,Potency,[7],inactive
Cc1cc(O)cc2c1O[C@](C)(CCC[C@H](C)CCC[C@H](C)CCCC(C)C)CC2,activation,[1],inconclusive: -15.9%
same,"ratio activity, negative = inhibition",[2],inconclusive: -5.14%
same,Potency,[14],inactive
same,Potency,[16],"inconclusive: 7.5 µM [cytotoxic, single point]"
same,Potency,[7],inactive
Nc1ccc(S(=O)(=O)NCc2ccccc2)cc1,Potency,[1],inactive
same,Potency,[2],inactive
same,Potency,[9],"inconclusive: 0.668 µM [cytotoxic, single point]"
same,Potency,[17],inactive
same,"activity change, negative = inhibition",[7],inconclusive: 8.46%
c1ccc2sc(SN3CCOCC3)nc2c1,activation,[1],inconclusive: 3.02%
same,Potency,[2],inactive
same,Potency,[12],"inconclusive: 33.5 µM [rising, single point]"
same,Potency,[7],inactive
